B1: PhoQ; a variant is named by its letters at X, in order, P23837 (parent)
chain: MKKLLRLFFPLSLRVRFLLATAAVVLVLSLAYGMVALIGYSVSFDKTTFRLLRGESNLFYTLAKWENNKLHVELPENIDKQSPTMTLIYDENGQLLWAQRDVPWLMKMIQPDWLKSNGFHEIEADVNDTSLLLSGDHSIQQQLQEVREDDDDAEMTHSVAVNVYPATSRMPKLTIVVVDTIPVELKSSYMVWSWFIYVLSANLLLVIPLLWVAAWWSLRPIEALAKEVRELEEHNRELLNPATTRELTSLVRNLNRLLKSERERYDKYRTTLTDLTHSLKTPLXXLQXXLRSLRSEKMSVSDAEPVMLEQISRISQQIGYYLHRASMRGGTLLSRELHPVAPLLDNLTSALNKVYQRKGVNISLDISPEISFVGEQNDFVEVMGNVLDNACKYCLEFVEISARQTDEHLYIVVEDDGPGIPLSKREVIFDRGQRVDTLRPGQGVGLAVAREITEQYEGKIVAGESMLGGARMEVIFGRQHSAPKDE

Some of the results follow. A value given as a limit tells only on which side of the number the result lay.

The variants in the experiment derive from B1. As to the kind of experiment: enrichment ratio after two sorts for PhoP signalling (ratio (wild type AVST 3.29)); higher = more functional. To be noted: with PhoP (E. coli).
YQPL: the enrichment ratio was at most 0.25.

Consider ACMV, for which the enrichment ratio was determined as 7.12.

For FTVE, the enrichment ratio is at most 0.25.

LVYG: the enrichment ratio was at most 0.25.

In the case of RYIK, the enrichment ratio was determined as 0.387.

Consider VRRN, for which the enrichment ratio was at most 0.25.

On to HKSR, for which the enrichment ratio is at most 0.25.

For KPYH, the enrichment ratio is at most 0.25.

For IWPH, the enrichment ratio was at most 0.25.

Consider FEKT, for which the enrichment ratio was at most 0.25.

With LHEH, the enrichment ratio was at most 0.25.

On to LAMC, for which the enrichment ratio was at most 0.25.

On to FKPR, for which the enrichment ratio was at most 0.25.

As to TQTW, the enrichment ratio is at most 0.25.

On to HDNI, for which the enrichment ratio is at most 0.25.

Take GWVY: the enrichment ratio is at most 0.25.

As for GKRY, the enrichment ratio is at most 0.25.

As to YFLT, the enrichment ratio is at most 0.25.

Regarding IADM, the enrichment ratio was at most 0.25.

Turning to RCNK, the enrichment ratio was at most 0.25.

With MSKQ, the enrichment ratio is at most 0.25.

MDTQ: the enrichment ratio is at most 0.25.

As to ESRS, the enrichment ratio is at most 0.25.

Turning to YSHY, the enrichment ratio was at most 0.25.

Turning to RRSK, the enrichment ratio is at most 0.25.

Consider VLQL, for which the enrichment ratio is at most 0.25.

As to VMFA, the enrichment ratio was at most 0.25.

For the variant NVSC, the enrichment ratio is at most 0.25.

Regarding VPNW, the enrichment ratio is at most 0.25.

As for NIII, the enrichment ratio is at most 0.25.

In the case of EVGL, the enrichment ratio was at most 0.25.

Regarding KDYL, the enrichment ratio was at most 0.25.

As for WVSF, the enrichment ratio was at most 0.25.

For the variant PYQS, the enrichment ratio is at most 0.25.

Turning to FPAK, the enrichment ratio is at most 0.25.

For RYVL, the enrichment ratio was at most 0.25.

With QHSL, the enrichment ratio was found to be 0.457.

As to SMFP, the enrichment ratio is at most 0.25.

With GWYN, the enrichment ratio is at most 0.25.

Turning to MASE, the enrichment ratio is at most 0.25.

Regarding FKTR, the enrichment ratio was at most 0.25.

On to NYVC, for which the enrichment ratio is at most 0.25.

As for LNWA, the enrichment ratio is at most 0.25.

For the variant QCCL, the enrichment ratio is at most 0.25.

As for IRCL, the enrichment ratio was at most 0.25.

Take KPGQ: the enrichment ratio is at most 0.25.

As to NKGS, the enrichment ratio is at most 0.25.

FWFD: the enrichment ratio was at most 0.25.

For RRTC, the enrichment ratio is at most 0.25.

For the variant KEPT, the enrichment ratio was at most 0.25.

For the variant KLAN, the enrichment ratio is at most 0.25.

Regarding YLES, the enrichment ratio is at most 0.25.

As for VIMS, the enrichment ratio is at most 0.25.

PQIP: the enrichment ratio is at most 0.25.

As for QCWV, the enrichment ratio worked out at 4.67.

Take NGCC: the enrichment ratio was at most 0.25.

Turning to QPNV, the enrichment ratio was at most 0.25.

Turning to LPRA, the enrichment ratio is at most 0.25.

As to HLLG, the enrichment ratio was at most 0.25.

Consider PTNG, for which the enrichment ratio is at most 0.25.

For QSQL, the enrichment ratio was at most 0.25.

As to FDFK, the enrichment ratio is at most 0.25.

Take DHIY: the enrichment ratio was at most 0.25.

In the case of NMST, the enrichment ratio is at most 0.25.

SAPS: the enrichment ratio was at most 0.25.

As to WVMM, the enrichment ratio was at most 0.25.

On to VDCC, for which the enrichment ratio was at most 0.25.

On to LYCM, for which the enrichment ratio was at most 0.25.

On to IMYG, for which the enrichment ratio is at most 0.25.

Take TWEA: the enrichment ratio is at most 0.25.

In the case of LRTT, the enrichment ratio was at most 0.25.

Regarding MGWP, the enrichment ratio was at most 0.25.

Turning to NLTK, the enrichment ratio is at most 0.25.

Consider YQPI, for which the enrichment ratio is at most 0.25.

For the variant PRHA, the enrichment ratio is at most 0.25.

For the variant HRQW, the enrichment ratio was at most 0.25.

In the case of KWDT, the enrichment ratio was at most 0.25.

As for IHLY, the enrichment ratio was at most 0.25.

Turning to HDNE, the enrichment ratio is at most 0.25.

With KGNH, the enrichment ratio was at most 0.25.

With WDAP, the enrichment ratio is at most 0.25.

As to PAWV, the enrichment ratio was at most 0.25.

With KMFV, the enrichment ratio is at most 0.25.

Regarding HMVA, the enrichment ratio is at most 0.25.

As for LIYL, the enrichment ratio is at most 0.25.

Consider GDIR, for which the enrichment ratio was at most 0.25.

As to FLKE, the enrichment ratio was at most 0.25.

For MLFN, the enrichment ratio is at most 0.25.

WLRS: the enrichment ratio was at most 0.25.

VQDG: the enrichment ratio was at most 0.25.

Turning to MRMQ, the enrichment ratio was at most 0.25.

Regarding SSHM, the enrichment ratio came out at 1.96.

In the case of LLSM, the enrichment ratio was at most 0.25.

On to RPFF, for which the enrichment ratio was at most 0.25.

Turning to SQWE, the enrichment ratio was at most 0.25.

Turning to SGGK, the enrichment ratio was at most 0.25.

Regarding TKMT, the enrichment ratio was 6.64.

For the variant MAAR, the enrichment ratio was at most 0.25.

Turning to YKFS, the enrichment ratio was at most 0.25.

For the variant KGCD, the enrichment ratio is at most 0.25.

As for NTSG, the enrichment ratio was at most 0.25.

For QKAF, the enrichment ratio was at most 0.25.

As for NMPK, the enrichment ratio was at most 0.25.

As to CITF, the enrichment ratio is at most 0.25.

EKVI: the enrichment ratio is at most 0.25.

For SNYN, the enrichment ratio stood at 0.299.

In the case of PHER, the enrichment ratio was at most 0.25.

Take ICPE: the enrichment ratio was at most 0.25.

Turning to SEAA, the enrichment ratio stood at 14.3.

For the variant DPFY, the enrichment ratio was at most 0.25.

As to KLVP, the enrichment ratio was at most 0.25.

With SCFL, the enrichment ratio was at most 0.25.

Take FENA: the enrichment ratio was at most 0.25.

FQFL: the enrichment ratio is at most 0.25.

Consider PTKD, for which the enrichment ratio was at most 0.25.

For WVQL, the enrichment ratio is at most 0.25.

With GNMY, the enrichment ratio is at most 0.25.

With RRNN, the enrichment ratio is at most 0.25.

Take IPTK: the enrichment ratio was at most 0.25.

As for PPDH, the enrichment ratio is at most 0.25.

For VPTM, the enrichment ratio was at most 0.25.

As to SCLN, the enrichment ratio was 11.7.

Turning to AFKP, the enrichment ratio is at most 0.25.

With SCPR, the enrichment ratio is at most 0.25.

For KPIN, the enrichment ratio is at most 0.25.

On to VAGH, for which the enrichment ratio was at most 0.25.

On to WSKA, for which the enrichment ratio is at most 0.25.

As to GPHD, the enrichment ratio is at most 0.25.

NKFA: the enrichment ratio is at most 0.25.

On to IKQP, for which the enrichment ratio was at most 0.25.

Regarding LKRY, the enrichment ratio is at most 0.25.

With QEPR, the enrichment ratio is at most 0.25.

As to HWAQ, the enrichment ratio was at most 0.25.

TKCH: the enrichment ratio was 5.23.

For the variant PSVL, the enrichment ratio is at most 0.25.

On to DEFW, for which the enrichment ratio was at most 0.25.

As to WKGA, the enrichment ratio was at most 0.25.

On to GGEN, for which the enrichment ratio was at most 0.25.

Take FNPY: the enrichment ratio is at most 0.25.

Take IKFN: the enrichment ratio is at most 0.25.

In the case of VQFE, the enrichment ratio was at most 0.25.

In the case of YTTM, the enrichment ratio came out at 8.49.

Take TCSN: the enrichment ratio is 20.

For EFAF, the enrichment ratio was at most 0.25.

For WIMH, the enrichment ratio was at most 0.25.

For the variant NVTG, the enrichment ratio is at most 0.25.

Turning to EILV, the enrichment ratio was at most 0.25.

As for VGIW, the enrichment ratio is at most 0.25.

Turning to QSEV, the enrichment ratio is at most 0.25.

On to SWSR, for which the enrichment ratio is at most 0.25.

As to DKCF, the enrichment ratio is at most 0.25.

Take ARLG: the enrichment ratio is at most 0.25.

Consider GRPI, for which the enrichment ratio is at most 0.25.

These data come from a collection of fitness landscapes (doi:10.1126/science.1257360).
